The campaign covered roughly 310,000 compounds. About 2,200 (0.71%) showed an effect of 50% or more. Effects have a minus sign here. The list shows a part of the results.
The molecules below were run against human ether-à-go-go-related gene (hERG) potassium channel (human, UniProt Q12809) (assay: primary screen, population patch clamp on CHO cells stably expressing hERG).
Sequence of human ether-à-go-go-related gene (hERG) potassium channel (Q12809 whole entry, looked up): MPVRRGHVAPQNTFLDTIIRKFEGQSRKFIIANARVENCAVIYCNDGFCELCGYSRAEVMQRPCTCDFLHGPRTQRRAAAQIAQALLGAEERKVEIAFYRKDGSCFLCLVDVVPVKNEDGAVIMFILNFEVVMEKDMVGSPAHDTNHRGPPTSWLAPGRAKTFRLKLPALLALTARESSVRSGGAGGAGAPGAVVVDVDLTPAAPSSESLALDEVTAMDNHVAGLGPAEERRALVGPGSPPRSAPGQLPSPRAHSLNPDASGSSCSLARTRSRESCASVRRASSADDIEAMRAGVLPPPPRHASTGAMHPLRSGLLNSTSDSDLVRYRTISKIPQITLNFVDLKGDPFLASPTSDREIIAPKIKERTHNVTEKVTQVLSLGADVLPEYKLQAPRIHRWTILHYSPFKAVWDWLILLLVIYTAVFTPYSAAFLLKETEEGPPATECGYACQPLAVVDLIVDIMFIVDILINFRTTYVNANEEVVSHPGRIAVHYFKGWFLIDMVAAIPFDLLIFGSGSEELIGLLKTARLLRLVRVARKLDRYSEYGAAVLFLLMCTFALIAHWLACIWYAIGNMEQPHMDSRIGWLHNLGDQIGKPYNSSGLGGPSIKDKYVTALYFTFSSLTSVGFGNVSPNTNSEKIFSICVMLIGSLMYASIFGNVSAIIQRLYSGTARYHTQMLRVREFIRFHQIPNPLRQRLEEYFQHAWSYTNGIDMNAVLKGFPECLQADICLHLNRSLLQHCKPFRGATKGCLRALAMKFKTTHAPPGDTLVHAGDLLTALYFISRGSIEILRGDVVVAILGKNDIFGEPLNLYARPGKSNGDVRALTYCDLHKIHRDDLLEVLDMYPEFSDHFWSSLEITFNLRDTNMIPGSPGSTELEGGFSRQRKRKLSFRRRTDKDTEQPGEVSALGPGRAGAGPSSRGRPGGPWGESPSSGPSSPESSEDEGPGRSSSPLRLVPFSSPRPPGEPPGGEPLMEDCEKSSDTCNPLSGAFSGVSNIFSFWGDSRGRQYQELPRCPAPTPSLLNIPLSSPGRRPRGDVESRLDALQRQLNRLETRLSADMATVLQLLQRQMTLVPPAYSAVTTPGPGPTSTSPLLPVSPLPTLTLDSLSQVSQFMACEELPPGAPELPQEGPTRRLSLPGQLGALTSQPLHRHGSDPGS

Compound	hERG current change (%, negative = inhibition) at 1uM [%]
c1ccc2c(c1)nc(Nc1ccc3c(c1)OCO3)c1nnnn12	9.03
CC(Oc1ccc(Cl)cc1Cl)C(=O)Nc1cccc(O)c1 (centres unmarked)	12.9
COc1ccc(NC(=O)C2C3CCC(O3)C2C(=O)O)cc1OC (centres unmarked)	15.4
Cc1ccc(-c2c(C#N)c(N)nc3c2CCCCC3)o1	-4.85
COc1ccc2c(c1OC)C(=O)OC2Nc1nc(-c2ccccc2)cs1 (centres unmarked)	11
O=C1CCCc2c1cnc1ncnn21	1.13
O=C(NCCc1ccc(Cl)cc1)C1CCN(S(=O)(=O)N2CCC3(CC2)OCCO3)CC1	10.5
Cc1ccc(S(=O)(=O)/N=C(\N)c2ccc(Cl)cc2)cc1	10.4
CCn1c(SCc2nc(CC(=O)Nc3ccccc3OC)no2)nnc1-c1cccs1	-19.1
Cc1ccc(N2CC(C(=O)Nc3ccc4c(c3)OCCO4)CC2=O)cc1 (centres unmarked)	17.2
CCCN1C(=O)C2(SC(NC(C)=O)=NN2C(C)=O)c2cc(C)cc(C)c21 (centres unmarked)	5.2
O=C(COC(=O)CN1C(=O)C2CCCCC2C1=O)Nc1ccc(S(=O)(=O)N2CCOCC2)cc1 (centres unmarked)	20.6
COc1ccc2cc(OC)c(C(=O)N3CCOCC3)cc2c1	2.67
CCCc1cc(=O)[nH]c(SCC(=O)Nc2sc3c(c2C#N)CCC(C)C3)n1 (centres unmarked)	14
O=C(/C=C/c1ccccc1Cl)N(Cc1ccc(Cl)cc1)C1CCS(=O)(=O)C1 (centres unmarked)	15.7
COc1ccc(CC(=O)NNC(=O)CCc2ccccc2)cc1OC	7.72
CCC(NS(=O)(=O)c1ccc(OC)cc1)C(=O)NCCc1ccccc1 (centres unmarked)	12.7
N#CC1=C(SCC(=O)NC2CC2)NC(=O)C(C#N)C12CCCCC2 (centres unmarked)	9.32
O=C(CC12CC3CC(CC(C3)C1)C2)Nc1ccccc1N1CCOCC1	2.7
Nc1cccc(NC(=O)CN2CCOCC2)c1	11.7
CCOc1ccc(C(C(=O)NCC2CCCO2)N(C(=O)c2snc(C(N)=O)c2N)c2ccccc2F)cc1 (centres unmarked)	9.53
CCc1nnc(NC(=O)CSc2nc3[nH]c(=O)cc(O)c3s2)s1	0.141
CC1CCC(NC(=O)c2nn(C)c3c2CSc2ccccc2-3)CC1 (centres unmarked)	5.03

Compound	hERG current change (%, negative = inhibition) at 1uM [%]
COc1ccccc1OCCC(=O)OCC(=O)Nc1cc(S(=O)(=O)N(C)C)ccc1Cl	16.6
COC(=O)C1=CN(Cc2ccc(OC)c(OC)c2)C=C(C(=O)OC)C1c1cccc(OC)c1OC	9.15
COc1ccccc1OCCNC(=O)C1CCN(C(C)=O)CC1	18.2
O=C(CSc1ccccn1)Nc1ccc(Cl)cn1	5.17
COc1ccc(Cc2noc(CN(C)CC3CCN(Cc4ccccc4)CC3)n2)cc1OC	6.67
Cc1ccc(S(=O)(=O)CCC(=O)OCC(=O)Nc2cc(C)on2)cc1	14.6
CCCCN1CC[C@H]2C=CC[C@@H](C(=O)NCc3ccc(OC)cc3)[C@H]2C1=O	16
CCCn1c(SCC(=O)Nc2cc(S(=O)(=O)N(C)C)ccc2OC)n[nH]c1=O	9.45
CC(C)CN(C(=O)CSc1nnc2ccccn12)C1CCS(=O)(=O)C1 (centres unmarked)	8.69
Cc1cc(=O)[nH]c(S/C=C/c2ccccc2)n1	3.74
CN1CC(=O)N(CC(=O)Nc2ccc3c(c2)CCC3)C1=O	6.54
CCN(CC(=O)NCc1cccs1)C(=O)CCOc1ccccc1C	-10.2
C=C(C)c1cccc(C(C)(C)NC(=O)NCc2cccnc2)c1	5.18
CCOC(=O)c1[nH]c(C)c(CN(CCc2ccccc2)C(=O)CCC(=O)O)c1C	12.1
Cc1cc(/C=C(\C#N)C(=O)NC2CC2)c(C)[nH]1	7.2
CC(=O)n1cc([C@H]2C=C(C(=O)Nc3ccccc3)O[C@@H](OCc3ccc(CO)cc3)C2)c2ccccc21	7.58
CC1(C)CC(NCc2ccc3c(c2)OCO3)CCO1 (centres unmarked)	4.4
CC(=O)OC(COc1ccc(F)cc1)Cn1cnc2ccccc21 (centres unmarked)	25.9
COc1ccc(/C=C/C(=O)Oc2ccc(/C=N\NC(=O)c3ccc(F)cc3)cc2)cc1	10.5
COC(=O)C1=C(c2ccc(F)cc2OCc2ccccc2)C[C@@H]2CC[C@H]1N2C(=O)NCc1ccccc1Br	6.72
Cn1c(=O)cc(OCC(=O)N2CCN(c3ccccc3F)CC2)c2ccccc21	-9.24
CN(C)CCO/N=C(\c1ccc(Br)cc1)c1cccnc1.O=C(O)C(=O)O	-20.4
Cc1ccc(Cc2cnc(NC(=O)c3ccco3)s2)cc1	14.8

Compound	hERG current change (%, negative = inhibition) at 1uM [%]
Cc1nc2sc(C(c3cccc(F)c3)N3CCN(C(=O)c4ccco4)CC3)c(O)n2n1 (centres unmarked)	-11.4
O=C(COC(=O)CNC(=O)c1cccs1)Nc1ccc(C(F)(F)F)cc1[N+](=O)[O-]	4.66
COc1ccc(Cl)cc1S(=O)(=O)n1nnc2ccccc21	6.61
O=C(CN1C(=O)/C(=C/c2ccccc2F)Sc2ccccc21)NCC1CCCO1 (centres unmarked)	4.24
CCOc1ccc(N(Cc2cc3cc(C)ccc3[nH]c2=O)S(=O)(=O)c2ccccc2)cc1	15.8
O=C1CCC(=O)N1c1cccc(-c2nc3ccccc3o2)c1	11.2
CCOc1cc(C(=O)Nc2cc(C)on2)cc(OCC)c1OCC	15.7
CN(C)C(=O)COC(=O)c1ccccc1Sc1ccccc1C#N	0.396
O=C(Nc1ccccc1N1CCCC1)c1ccc([N+](=O)[O-])cc1Cl	11.9
Cc1csc(SCC(=O)NC(C)c2ccccc2)n1 (centres unmarked)	7.43
Cc1nn(Cc2ccccc2Cl)c2sc(C(=O)Nc3nccs3)cc12	7.9
CS(=O)(=O)N(CC(=O)NCCSCc1ccccc1)c1ccccc1Br	17.3
CCCC(C)NNC(=O)c1cc2ccccc2[nH]1 (centres unmarked)	10.8
CC1(C)CC(NC(=O)c2ccccc2)CC(C)(C)N1	13
CCOc1ccc2nc(/N=C/c3c(C)[nH]n(-c4ccccc4)c3=O)sc2c1	16.1
Clc1ccc(Cn2c(/C=C/c3ccco3)nc3ccccc32)cc1	11.3
O=C(NNS(=O)(=O)c1ccc(CCCl)cc1)C(O)(c1ccccc1)c1ccccc1	-6.5
CC(=O)N/N=C(\C)CC(=O)Nc1ccc2c(c1)OCCO2	9.75
Cc1ccc(-n2c(SCC(=O)OC(C)C)nnc2-c2ccccn2)cc1	3.08
COc1ccc(NC(=O)CSc2ncnc3c2cnn3Cc2ccccc2)cc1	13.8
CCN(CC)C(=O)Cn1ncc2c1-c1ccccc1OC2	1.51
CCCCCNc1nc2sc3c(c2c(=O)n1-c1cccc(Cl)c1)CCN(C)C3	2.06
Cc1ccsc1C(=O)N1CCN(C(=O)c2ccco2)CC1	2.43

Compound	hERG current change (%, negative = inhibition) at 1uM [%]
O=C(CCCSc1nc2ccccc2[nH]1)Nc1nnc(-c2ccccc2)o1	3.61
Cc1ccc(SCc2c(C#N)c3ccccc3n2C)cc1	6.41
C=CCN1C(=O)C(CC(=O)NCC)SC1=Nc1ccccc1CC (centres unmarked)	11.7
CCCn1c(/C=C/c2ccccc2)nc2ccccc21	-13.6
COc1ccc(C(=O)NC(C)CCc2ccccc2)cc1 (centres unmarked)	9.15
Cc1ccc(C(=O)NCCNC(=O)COc2ccc(C)c(C)c2)cn1	8.16
CCOC(=O)Nc1ccc2c(c1)N(C(=O)CCN1CCOCC1)c1ccccc1S2=O.Cl (centres unmarked)	-3.88
CN1CCN(CCCCOc2ccccc2C=O)CC1.O=C(O)C(=O)O	-3.34
COc1ccc(C(=O)NNC(=S)NC(=O)c2ccccc2)cc1	14.2
N#Cc1cnn2cc(-c3ncc(C(F)(F)F)cc3Cl)cnc12	-5.65
Cc1cnc(C(=O)NCc2ccc(Cl)cc2Cl)cn1	0.681
CC(C)c1nc(SCC(=O)Nc2ccc3c(c2)OCO3)n[nH]1	22.5
Cc1occc1C(=O)Nc1ccc(S(=O)(=O)N2CCCC2)cc1	-8.3
COC(=O)c1ccc2c(c1)NC(=O)C1CCCN21 (centres unmarked)	1.94
CC(C)CNS(=O)(=O)c1ccc(CCC(=O)NCc2ccncc2)cc1	18.9
C/C(=N/NC(=O)c1cccc(C)c1)c1c(O)cc(C)oc1=O	10.8
O=C1[C@@H]2Cc3c([nH]c4ccccc34)C(c3cccc(Br)c3)N2C(=O)CN1C1CCN(Cc2ccccc2)CC1 (some centres unmarked)	13.9
COc1ccc(C(=O)COC(=O)c2ccc([N+](=O)[O-])s2)cc1OC	2.42
OC(CNc1ccccc1)COc1ccc(OCC(O)CNc2ccccc2)cc1 (centres unmarked)	-0.255
O=C(NCCN1CCCCC1)c1cc(COc2c(F)cccc2F)on1	-2.1

Reference: PMC4336329 (PLoS ONE, 2015)
